# According to paper PMC11595209:
# Chains of the proteins cited; added tags and fusions are not shown.
# UniProt Q00271: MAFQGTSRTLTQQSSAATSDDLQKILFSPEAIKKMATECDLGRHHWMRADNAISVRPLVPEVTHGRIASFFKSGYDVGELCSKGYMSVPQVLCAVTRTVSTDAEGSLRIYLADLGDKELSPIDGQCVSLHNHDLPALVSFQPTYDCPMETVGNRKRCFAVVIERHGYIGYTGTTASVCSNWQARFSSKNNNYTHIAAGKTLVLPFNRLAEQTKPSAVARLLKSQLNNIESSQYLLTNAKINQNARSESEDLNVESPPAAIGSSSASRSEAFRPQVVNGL
# UniProt P03545: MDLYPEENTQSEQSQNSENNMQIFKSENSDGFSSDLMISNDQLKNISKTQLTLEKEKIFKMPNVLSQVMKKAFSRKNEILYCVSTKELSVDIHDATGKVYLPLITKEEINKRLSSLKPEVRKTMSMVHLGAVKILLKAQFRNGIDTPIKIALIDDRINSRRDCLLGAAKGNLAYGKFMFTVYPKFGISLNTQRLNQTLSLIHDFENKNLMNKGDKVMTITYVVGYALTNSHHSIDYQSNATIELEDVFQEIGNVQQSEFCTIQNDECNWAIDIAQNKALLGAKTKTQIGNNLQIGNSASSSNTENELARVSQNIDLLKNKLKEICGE
# Results are given in words; binding and its absence hold for the method and conditions named. Binding seen in cells or lysates may run through a third protein. Some results given as binding are weak or reduced against the parent protein; the word gives no strength. Tags and fused reporters may be left off the sequences shown.
# T1: N. tabacum peroxidase, BiFC fusion (N. tabacum)
# T1 sequence: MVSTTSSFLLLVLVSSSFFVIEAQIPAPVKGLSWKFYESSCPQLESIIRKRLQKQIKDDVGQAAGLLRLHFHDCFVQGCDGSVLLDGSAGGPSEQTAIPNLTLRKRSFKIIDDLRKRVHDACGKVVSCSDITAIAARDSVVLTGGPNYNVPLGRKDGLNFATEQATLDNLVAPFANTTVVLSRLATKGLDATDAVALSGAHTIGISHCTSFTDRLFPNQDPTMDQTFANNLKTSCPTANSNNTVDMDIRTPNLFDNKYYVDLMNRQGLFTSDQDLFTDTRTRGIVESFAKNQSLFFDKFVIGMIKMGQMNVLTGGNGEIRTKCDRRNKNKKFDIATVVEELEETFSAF
# B1: N. tabacum 14-3-3A protein, BiFC fusion (protein, UniProt A0ABD8EQ38 1-255)
# chain: MASPREENVYLAKLAEQAERYEEMVEFMEKVVGAGDDELTVEERNLLSVAYKNVIGARRASWRIISSIEQKEESRGNEDHVASIKTYRSKIESELTSICNGILKLLDSKLIGTAATGDSKVFYLKMKGDYYRYLAEFKTGAERKEAAENTLSAYKSAQDIANVELAPTHPIRLGLALNFSVFYYEILNSPDRACNLAKQAFDEAIAELDTLGEESYKDSTLIMQLLRDNLTLWTSDMQDDGTDEIKEPSKAEEQQ
# Legend:
# Experiment in all cases: split reporter; BiFC with NtGFP and CtGFP fragments of EGFP fused at the N- or C-terminus of each protein; co-agroinfiltration of N. benthamiana leaves (OD600 0.4, mixed in equal proportions); confocal microscopy
# [1] = molecular target: cucumber mosaic virus (CMV) movement protein, BiFC fusion (cucumber mosaic virus) (UniProt Q00271)
# [2] = molecular target: cauliflower mosaic virus (CaMV) movement protein, BiFC fusion (cauliflower mosaic virus) (UniProt P03545)
# [3] = molecular target: T1, N. tabacum peroxidase, BiFC fusion (N. tabacum)
binder,measurement,setting,value
B1,binding,[1],binds
same,binding,[2],no binding
same,binding,[3],binds
